Counter-ions that a name gives are not always drawn. Some of the results follow. Single values are uncertain, as repeats are few or missing.
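Note: KCNR is a neuroblastoma cell line carrying an ALK mutation, in this DMSO arm without trametinib, viability was normalised to solvent-treated cells.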

In the first assay the test system is SKNBE. Briefly: area under viability curve (10 nM-1 µM), viability relative to solvent or trametinib-only control (AUC (arbitrary, % viability x concentration range)); higher = less growth inhibition (more viable cells). The note with it: 72 h compound exposure (96 h after seeding) h; trametinib co-treatment 0 µM. On the procedure:
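Four neuroblastoma cell lines (KCNR, SKNBE, SJNB8, SKNAS) were seeded in 384-well plates. At 24 h, 1 µM trametinib or DMSO was added, followed by library compounds at 10 nM, 100 nM and 1 µM. Viability was read by MTT at 96 h and normalised to solvent-treated cells (DMSO arm) or to trametinib-only cells (trametinib arm). The area under the 3-point viability curve was computed in GraphPad Prism; units are as given (approx. 100000 = no effect).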
For `CCC(=O)CCCCC[C@@H]1NC(=O)[C@H]2CCCCN2C(=O)[C@H]([C@@H](C)CC)NC(=O)[C@H](Cc2cn(OC)c3ccccc23)NC1=O` [Apicidin], the “area under viability curve” value came to 75800.
Still for that read-out and setting: in the case of `C=C1C[C@@H]2[C@H](CC[C@]3(C)C(=O)CC[C@@H]23)[C@@]2(C)C=CC(=O)C=C12` [Exemestane] it was 106000; in that of `C[C@]12CC[C@@H]3c4ccc(OC(=O)N(CCCl)CCCl)cc4CC[C@H]3[C@@H]1CC[C@@H]2OP(=O)(O)O` [Estramustine phosphate sodium], 82300.
Still for that read-out and setting: in the case of `N[C@@H]1C[C@H]1c1ccccc1.N[C@H]1C[C@@H]1c1ccccc1` [Tranylcypromine hemisulfate] it was 108000.
Turning to `Cc1ncc(CNC(=O)N(CCCl)N=O)c(N)n1` [Nimustine HCl], the “area under viability curve” value amounted to 125000.
On the same count and under the same terms, the same measure for `C[C@]12CCC(=O)C(O)=C1CC[C@@H]1[C@@H]2CC[C@]2(C)C(=O)CC[C@@H]12` [Formestane]: 96100.
Consider `O=C(O)c1nn(Cc2ccc(Cl)cc2Cl)c2ccccc12` [Lonidamine], for which the “area under viability curve” value came to 108000.
As to `N[C@@H](Cc1ccc(N(CCCl)CCCl)cc1)C(=O)O` [Melphalan], the “area under viability curve” value was found to be 118000.
As for `N.N.[Cl][Pt][Cl]` [Cisplatin], the “area under viability curve” value was determined as 112000.
On the same count and under the same terms, the same measure for `CC[C@@]1([C@H]2O[C@H]([C@H]3O[C@@](O)(CO)[C@H](C)C[C@@H]3C)C[C@H]2C)CC[C@H]([C@@]2(C)CC[C@]3(C[C@H](O)[C@@H](C)[C@@H]([C@H](C)[C@H](OC)[C@@H](C)C(=O)O)O3)O2)O1` [Monensin sodium]: 35400.
As for `CC[C@H](Nc1nc(NCc2cnc(C)cc2C)c2ncn(C(C)C)c2n1)[C@@H](C)O` [Fadraciclib], the “area under viability curve” value is 89000.
As for `CC(=O)Oc1ccc(/C=C/c2cc(OC(C)=O)cc(OC(C)=O)c2)cc1` [Triacetylresveratrol], the “area under viability curve” value was 93900.

Still in this assay, the particulars now being: 72 h compound exposure (96 h after seeding) h; trametinib co-treatment 1 µM.
Consider `CCC(=O)CCCCC[C@@H]1NC(=O)[C@H]2CCCCN2C(=O)[C@H]([C@@H](C)CC)NC(=O)[C@H](Cc2cn(OC)c3ccccc23)NC1=O` [Apicidin], for which the “area under viability curve” value came out at 49200.
On the same count and under the same terms, the same measure for `C=C1C[C@@H]2[C@H](CC[C@]3(C)C(=O)CC[C@@H]23)[C@@]2(C)C=CC(=O)C=C12` [Exemestane]: 95900; for `C[C@]12CC[C@@H]3c4ccc(OC(=O)N(CCCl)CCCl)cc4CC[C@H]3[C@@H]1CC[C@@H]2OP(=O)(O)O` [Estramustine phosphate sodium]: 84200; for `N[C@@H]1C[C@H]1c1ccccc1.N[C@H]1C[C@@H]1c1ccccc1` [Tranylcypromine hemisulfate]: 105000.
Turning to `Cc1ncc(CNC(=O)N(CCCl)N=O)c(N)n1` [Nimustine HCl], the “area under viability curve” value was 110000.
Same read-out and setting: in the case of `C[C@]12CCC(=O)C(O)=C1CC[C@@H]1[C@@H]2CC[C@]2(C)C(=O)CC[C@@H]12` [Formestane] it was 104000; in that of `O=C(O)c1nn(Cc2ccc(Cl)cc2Cl)c2ccccc12` [Lonidamine], 95500.
As for `N[C@@H](Cc1ccc(N(CCCl)CCCl)cc1)C(=O)O` [Melphalan], the “area under viability curve” value was 107000.
Still for that read-out and setting: the same measure for `N.N.[Cl][Pt][Cl]` [Cisplatin]: 105000.
The same measure, in the same setting: in the case of `CC[C@@]1([C@H]2O[C@H]([C@H]3O[C@@](O)(CO)[C@H](C)C[C@@H]3C)C[C@H]2C)CC[C@H]([C@@]2(C)CC[C@]3(C[C@H](O)[C@@H](C)[C@@H]([C@H](C)[C@H](OC)[C@@H](C)C(=O)O)O3)O2)O1` [Monensin sodium] it was 18800.
The same measure, in the same setting: in the case of `CC[C@H](Nc1nc(NCc2cnc(C)cc2C)c2ncn(C(C)C)c2n1)[C@@H](C)O` [Fadraciclib] it was 72200.
Turning to `CC(=O)Oc1ccc(/C=C/c2cc(OC(C)=O)cc(OC(C)=O)c2)cc1` [Triacetylresveratrol], the “area under viability curve” value came out at 112000.

(Values after the supplement of paper PMC9990464.)
